# Measurements published in the supplement of paper PMC4604168 (melanoma cell lines).
# The list shows a part of the results. Many values rest on one well or one pass, so single values are uncertain.
# How the values were obtained:
# Assay in all cases: cell count relative to DMSO control; melanoma cells; higher = more viable cells
# Settings in all cases: library dose: low library concentration; 72 h
# COLO792 = tested on: COLO792
# COLO800 = tested on: COLO800
# COLO829 = tested on: COLO829
# G361 = tested on: G361
# IPC-298 = tested on: IPC-298
# IST-MEL1 = tested on: IST-MEL1
# LB2518-MEL = tested on: LB2518-MEL
# LOXIMVI = tested on: LOXIMVI
# MEL-HO = tested on: MEL-HO
# MZ2-MEL = tested on: MZ2-MEL
# MeWo = tested on: MeWo
# RPMI7951 = tested on: RPMI7951
# RVH-421 = tested on: RVH-421
# SkMel28 = tested on: SkMel28
# SkMel2 = tested on: SkMel2
# SkMel30 = tested on: SkMel30
# SkMel5 = tested on: SkMel5
# UACC257 = tested on: UACC257
# UACC62 = tested on: UACC62
# 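Note: cell number obtained by counting DAPI-stained nuclei in high-throughput microscope images with image analysis software, screen run in 1,536-well plates.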
Structure (SMILES),cell count (COLO792),cell count (COLO800),cell count (COLO829),cell count (G361),cell count (IPC-298),cell count (IST-MEL1),cell count (LB2518-MEL),cell count (LOXIMVI),cell count (MEL-HO),cell count (MZ2-MEL),cell count (MeWo),cell count (RPMI7951),cell count (RVH-421),cell count (SkMel28),cell count (SkMel2),cell count (SkMel30),cell count (SkMel5),cell count (UACC257),cell count (UACC62)
"N.N.[Cl][Pt][Cl] [cisplatin] + O=C(O)C(=O)Nc1sc2c(c1C(=O)O)CCNC2 [TCS401] (first compound 1.6 µM, partner dose 1.66667 µM)",94%,155%,88.3%,83.1%,90.6%,109%,110%,77.8%,89.6%,97.1%,92.2%,98.7%,95.9%,90.3%,94.5%,73.3%,90.5%,94.3%,75%
"C[C@]12O[C@H](C[C@]1(O)CO)n1c3ccccc3c3c4c(c5c6ccccc6n2c5c31)CNC4=O [Lestaurtinib] + CCN(CC)CCCCNc1ncc2cc(-c3cc(OC)cc(OC)c3)c(NC(=O)NC(C)(C)C)nc2n1 [PD173074] (first compound 0.004 µM, partner dose 0.1 µM)",86.7%,89.6%,117%,98.2%,93.5%,104%,108%,88.9%,82.7%,103%,106%,103%,97.5%,88.5%,–,89.2%,107%,83%,87.7%
"N.N.[Cl][Pt][Cl] [cisplatin] + CC1(C)NC(=O)N(c2ccc([N+](=O)[O-])c(C(F)(F)F)c2)C1=O [nilutamide] (first compound 1.6 µM, partner dose 1 µM)",81.7%,91.8%,86.6%,100%,110%,88.2%,91.5%,150%,87.6%,102%,104%,76.7%,85%,71.6%,99.6%,93.6%,105%,109%,105%
"Cn1cc(C2=C(c3cn(C4CCN(Cc5ccccn5)CC4)c4ccccc34)C(=O)NC2=O)c2ccccc21 [Enzastaurin] + CCN(CC)CCCCNc1ncc2cc(-c3cc(OC)cc(OC)c3)c(NC(=O)NC(C)(C)C)nc2n1 [PD173074] (first compound 0.8 µM, partner dose 0.1 µM)",106%,135%,98.1%,94.7%,111%,89.2%,81.7%,72.5%,112%,95.1%,112%,92%,77.8%,81.2%,85.2%,86.3%,93.2%,95%,99.4%
"Cn1cc(C2=C(c3cn(C4CCN(Cc5ccccn5)CC4)c4ccccc34)C(=O)NC2=O)c2ccccc21 [Enzastaurin] + COC(=O)c1sccc1S(=O)(=O)Nc1ccc(Nc2ccccc2)cc1OC [GSK0660] (first compound 0.8 µM, partner dose 1 µM)",88%,86.3%,139%,98.2%,114%,110%,89.1%,75.9%,99.6%,94.2%,117%,92.6%,94.2%,99.2%,105%,103%,95.7%,85.8%,102%
"N.N.[Cl][Pt][Cl] [cisplatin] + O=C(Nc1ccccc1)c1cc([N+](=O)[O-])ccc1Cl [GW9662] (first compound 1.6 µM, partner dose 2 µM)",101%,119%,94.7%,90.5%,102%,104%,94.4%,93.1%,84.4%,96.4%,89.6%,92.8%,70.6%,92.3%,96%,91.9%,84%,113%,100%
"C[C@]12O[C@H](C[C@]1(O)CO)n1c3ccccc3c3c4c(c5c6ccccc6n2c5c31)CNC4=O [Lestaurtinib] + OCCn1cc(-c2cnc3nnn(Cc4ccc5ncccc5c4)c3n2)cn1 [PF04217903] (first compound 0.004 µM, partner dose 1 µM)",93%,101%,105%,97.5%,101%,107%,–,88.1%,104%,–,93.1%,127%,97.1%,97.9%,–,88.2%,105%,106%,85.9%
"C[C@]12O[C@H](C[C@]1(O)CO)n1c3ccccc3c3c4c(c5c6ccccc6n2c5c31)CNC4=O [Lestaurtinib] + C/C(O)=C(\C#N)C(=O)Nc1cc(Br)ccc1Br [LFM-A13] (first compound 0.004 µM, partner dose 2 µM)",104%,68.2%,58.2%,77.8%,96.6%,92.8%,94.3%,40.8%,100%,103%,78.2%,97.5%,99.6%,80.4%,–,84%,105%,105%,88.9%
"C[C@]12O[C@H](C[C@]1(O)CO)n1c3ccccc3c3c4c(c5c6ccccc6n2c5c31)CNC4=O [Lestaurtinib] + Cc1ccc(NC(=O)c2cccc(N(C)C)c2)cc1NC(=O)c1ccc(O)cc1 [ZM336372] (first compound 0.004 µM, partner dose 2 µM)",87.1%,81.2%,107%,84.9%,86%,90.8%,88.8%,103%,96.5%,83.3%,105%,67.8%,104%,106%,–,90.5%,93.4%,67.4%,90.4%
"C[C@]12O[C@H](C[C@]1(O)CO)n1c3ccccc3c3c4c(c5c6ccccc6n2c5c31)CNC4=O [Lestaurtinib] + CC(C)CCN1c2nc(Nc3cc(F)c(O)c(F)c3)ncc2N(C)C(=O)C1C [BID1870] (first compound 0.004 µM, partner dose 0.2 µM)",84%,93.1%,126%,110%,85.4%,101%,93.7%,143%,87.8%,105%,76.5%,106%,115%,91.1%,–,77.9%,95.3%,70.1%,95.1%
"C[C@]12O[C@H](C[C@]1(O)CO)n1c3ccccc3c3c4c(c5c6ccccc6n2c5c31)CNC4=O [Lestaurtinib] + COc1ccc(-c2ccc3c(N4CCOCC4)nc(N4C[C@@H](C)O[C@@H](C)C4)nc3n2)cc1CO [KU0063794] (first compound 0.004 µM, partner dose 0.02 µM)",96.6%,125%,84.9%,84.9%,89.9%,108%,88.6%,106%,81%,94.1%,74.7%,93.4%,105%,98%,–,76.4%,111%,73.2%,101%
"C[C@]12O[C@H](C[C@]1(O)CO)n1c3ccccc3c3c4c(c5c6ccccc6n2c5c31)CNC4=O [Lestaurtinib] + COC(=O)c1sccc1S(=O)(=O)Nc1ccc(Nc2ccccc2)cc1OC [GSK0660] (first compound 0.004 µM, partner dose 1 µM)",95.1%,90.7%,141%,126%,92.9%,107%,98.7%,128%,113%,109%,96.9%,121%,95.6%,89.6%,–,84.5%,107%,95.5%,97.8%
"C[C@]12O[C@H](C[C@]1(O)CO)n1c3ccccc3c3c4c(c5c6ccccc6n2c5c31)CNC4=O [Lestaurtinib] + O=C(Nc1ccccc1)c1cc([N+](=O)[O-])ccc1Cl [GW9662] (first compound 0.004 µM, partner dose 2 µM)",108%,62.9%,100%,94.1%,96%,101%,89.6%,86.2%,97.7%,98.1%,84.8%,107%,109%,92.4%,–,110%,99.3%,86.6%,99.4%
"C[C@]12O[C@H](C[C@]1(O)CO)n1c3ccccc3c3c4c(c5c6ccccc6n2c5c31)CNC4=O [Lestaurtinib] + NC(=O)Nc1cc(-c2cccc(F)c2)sc1C(=O)N[C@H]1CCCNC1 [AZD7762] (first compound 0.004 µM, partner dose 0.02 µM)",73.2%,123%,104%,113%,106%,104%,98.4%,48.4%,101%,103%,86%,96%,112%,99.1%,–,87.4%,111%,112%,114%
"Cn1cc(C2=C(c3cn(C4CCN(Cc5ccccn5)CC4)c4ccccc34)C(=O)NC2=O)c2ccccc21 [Enzastaurin] + CC(C)(C)c1cnc(CSc2cnc(NC(=O)C3CCNCC3)s2)o1 [SNS-032] (first compound 0.8 µM, partner dose 0.01 µM)",89.2%,95.1%,106%,94.7%,101%,96.5%,–,87.7%,109%,–,103%,90%,84.2%,94.4%,–,106%,86.6%,81.6%,87.2%
"C[C@]12O[C@H](C[C@]1(O)CO)n1c3ccccc3c3c4c(c5c6ccccc6n2c5c31)CNC4=O [Lestaurtinib] + Cc1cc([N+](=O)[O-])ccc1NS(=O)(=O)c1cc(Cl)ccc1Cl [FH535] (first compound 0.004 µM, partner dose 1 µM)",90.8%,77.2%,103%,87.8%,88.1%,91.8%,38.1%,75.6%,95.6%,87.3%,98.3%,102%,75.5%,89.3%,–,66.3%,89.4%,77.9%,82.9%
"C[C@]12O[C@H](C[C@]1(O)CO)n1c3ccccc3c3c4c(c5c6ccccc6n2c5c31)CNC4=O [Lestaurtinib] + O=c1cc(-c2cccc3c2Sc2ccccc2S3)oc(N2CCOCC2)c1 [KU55933] (first compound 0.004 µM, partner dose 1 µM)",96.8%,109%,121%,91.3%,92.3%,95.2%,86.3%,136%,84.8%,103%,94%,91%,123%,85.4%,–,73.1%,101%,80.9%,94.6%
